The campaign covered roughly 310,000 compounds. About 2,200 (0.71%) showed an effect of 50% or more. Effects have a minus sign here. The list shows a part of the results.
target: human ether-à-go-go-related gene (hERG) potassium channel (human, UniProt Q12809); assay: primary screen, population patch clamp on CHO cells stably expressing hERG
Sequence (Q12809 whole entry, looked up): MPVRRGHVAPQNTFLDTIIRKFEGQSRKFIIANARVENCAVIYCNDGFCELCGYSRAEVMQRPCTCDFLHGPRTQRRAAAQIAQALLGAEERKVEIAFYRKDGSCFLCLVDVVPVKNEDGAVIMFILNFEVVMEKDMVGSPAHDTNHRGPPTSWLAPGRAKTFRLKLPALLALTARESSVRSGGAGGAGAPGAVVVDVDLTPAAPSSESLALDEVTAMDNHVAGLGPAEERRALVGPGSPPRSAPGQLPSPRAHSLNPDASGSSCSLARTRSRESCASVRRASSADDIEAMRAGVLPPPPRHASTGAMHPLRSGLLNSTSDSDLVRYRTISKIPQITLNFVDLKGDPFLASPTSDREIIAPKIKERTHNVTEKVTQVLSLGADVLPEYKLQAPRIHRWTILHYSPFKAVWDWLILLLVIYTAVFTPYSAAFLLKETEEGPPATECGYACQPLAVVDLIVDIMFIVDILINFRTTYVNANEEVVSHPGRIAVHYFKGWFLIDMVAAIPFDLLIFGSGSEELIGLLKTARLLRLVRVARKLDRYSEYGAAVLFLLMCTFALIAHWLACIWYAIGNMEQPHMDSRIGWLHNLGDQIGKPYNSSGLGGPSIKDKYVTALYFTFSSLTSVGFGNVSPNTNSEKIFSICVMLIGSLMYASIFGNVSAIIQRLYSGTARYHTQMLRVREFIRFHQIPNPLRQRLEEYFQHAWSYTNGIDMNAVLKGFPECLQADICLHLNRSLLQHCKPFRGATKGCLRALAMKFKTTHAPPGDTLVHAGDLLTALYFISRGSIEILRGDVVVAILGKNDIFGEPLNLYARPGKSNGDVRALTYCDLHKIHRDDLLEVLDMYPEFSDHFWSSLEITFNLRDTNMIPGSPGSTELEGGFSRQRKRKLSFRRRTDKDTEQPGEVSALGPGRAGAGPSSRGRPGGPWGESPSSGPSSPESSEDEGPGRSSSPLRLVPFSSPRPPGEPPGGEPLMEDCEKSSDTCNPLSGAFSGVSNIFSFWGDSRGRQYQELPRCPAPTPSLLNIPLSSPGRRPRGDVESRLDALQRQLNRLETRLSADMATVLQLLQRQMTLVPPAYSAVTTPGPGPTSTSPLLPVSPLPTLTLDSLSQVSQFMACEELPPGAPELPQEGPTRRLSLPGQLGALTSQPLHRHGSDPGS

| SMILES | hERG current change (%, negative = inhibition) at 1uM |
| --- | --- |
| COc1ccc(-c2cc(C(=O)N3CCN(c4ccccc4F)CC3)c3ccccc3n2)c(OC)c1 | 4.75% |
| O=C(Nc1ccc(Cl)cc1)Nc1nnc(SCc2ccccc2)s1 | 11.2% |
| O=[N+]([O-])c1cc([N+](=O)[O-])c(Oc2cc(Cl)cc(Cl)c2)cc1NN1CCCCC1 | 11.6% |
| CCN(CC)C(=O)NC1CC2CCCC(C1)N2Cc1ccccc1 (stereo not drawn) | 2.54% |
| Cc1ccc(-c2cc(C(=O)Nc3cc(C)ccc3C)[nH]n2)c(O)c1 | 11.9% |
| CCCN(CC(=O)Nc1ccc(OC)c(OC)c1)CC(=O)Nc1ccc(F)c(F)c1F | 4.25% |
| CC(C)(CO)NC(=O)Nc1ccc(Cl)c(Cl)c1 | 17.5% |
| Cc1c[n+]([O-])cc(C)c1Oc1ccccc1 | 10.2% |
| COC(=O)c1nnn(CC(=O)Nc2ccc(C)c(F)c2)c1C(=O)OC | 17.1% |
| Cc1ccc(N2CCC(N3CCN(C4CCCCC4)C(CCO)C3)CC2)cc1 (stereo not drawn) | -10.5% |
| COc1ccc(C(=O)NC2CCN(C(=O)NCc3ccccc3)CC2)cc1 | 8.79% |
| CCN(CC)CC.COc1ccccc1-n1c(=S)[nH]c2c(sc(=S)n2-c2ccccc2C)c1=O | 6.42% |
| CN(Cc1ccccc1)C(=S)Nc1cccnc1 | 14.3% |
| Cc1ccc(O)c(N/C=C/C(=O)c2ccc(F)cc2)c1 | 10% |
| CC(C)(C)C1=C(C#N)C(c2ccncc2)C(C#N)=C(N)O1 (stereo not drawn) | 11.4% |
| CCCCSc1nnc2nc(C)cc(C)n12 | -3.49% |
| O=C(OC1CCOC1=O)c1ccc(N2CCCC2)c([N+](=O)[O-])c1 (stereo not drawn) | 10% |
| CCn1nc(C)c(Br)c1C(=O)Sc1ccccc1Cl | 11.6% |
| COc1ccccc1/C=C(/CC(=O)NCc1ccccc1)c1nc2ccccc2s1 | 10.9% |
| CCN(CC)c1ccc(NC(=O)c2cc(OC)cc(OC)c2)c(C)c1 | -2.35% |
| COC(=O)c1ccc(-n2cnc3ccccc32)nc1 | 19% |
| CC(C)[C@H](NC(=O)N1CC(=O)Nc2ccccc21)C(=O)N1CCC[C@@H]1C(=O)O | 9.59% |
| NC(=O)CCn1c(=O)oc2ccccc21 | 10.1% |

| SMILES | hERG current change (%, negative = inhibition) at 1uM |
| --- | --- |
| COc1ccc(S(=O)(=O)N2CCOCC2)cc1C(=O)N1CCCCC1 | 3.84% |
| Cc1cc(NC(=O)COC(=O)C2CC2)ccc1Br | 6.09% |
| CC(=O)c1ccc(N(C(=O)CNC(=O)c2ccco2)C(C(=O)NC2CCCC2)c2ccco2)cc1 (stereo not drawn) | 20.6% |
| CCOC(=O)/C(=C/Nc1ccccc1)[N+](=O)[O-] | 14.1% |
| O=[N+]([O-])c1ccc(N/N=C/c2cccs2)nc1 | 14.9% |
| COc1ccc(/C=N/NC(=O)c2cccc(S(=O)(=O)N3CCCC3)c2)cc1O | 4.09% |
| CC(=O)NCC(=O)OC(C(=O)c1ccccc1)c1ccc(Cl)cc1 (stereo not drawn) | 6.48% |
| O=C(O)c1sc2cc(C(F)(F)F)cnc2c1-c1cccs1 | 10.4% |
| COc1ccccc1NC(=O)CN(c1ccc([N+](=O)[O-])cc1)S(=O)(=O)c1ccccc1 | 5.71% |
| COC(=O)CSc1ccc(S(=O)(=O)N2CCCCCC2)cc1[N+](=O)[O-] | 9.43% |
| Cc1ncccc1C(=O)N1CCCC(CNC(=O)C2(c3ccc(Cl)cc3)CC2)C1 (stereo not drawn) | 14.4% |
| Cc1cccc(NC(=O)c2cc(S(=O)(=O)N3CCCCC3)c[nH]2)c1C | 9.14% |
| O=C(Nc1ccc(F)cc1)c1ccc2nc[nH]c2c1 | 6.88% |
| COC(=O)/C=C(\Oc1ccccc1)C1(O)CCCCC1 | 7.17% |
| O=C(O)c1ccc(NC(=S)NC(=O)c2cncc(Br)c2)cc1 | 17.7% |
| O=C1C2C3c4ccccc4C(c4ccccc43)C2C(=O)N1Cc1cccnc1 (stereo not drawn) | 2.65% |
| COCC1CCN(C(=O)c2cc(COc3ccc4ncccc4c3)on2)CC1 | 13.2% |
| CC1(c2ccccc2)NC(=O)N(CC(=O)Nc2cccc(C#N)c2)C1=O (stereo not drawn) | 7.63% |
| O=C(c1cc2ccccc2oc1=O)N1CCSC1c1ccco1 (stereo not drawn) | 11.7% |
| O=C(Nc1ccon1)c1cc2c(s1)CCCCCC2 | -7.68% |
| CCc1c(C#N)c(SCc2c(C)noc2C)nc2c1C(=O)CC(C)(C)C2 | 0.201% |
| O=C1c2cc(O)c(O)cc2S(=O)(=O)C1c1ccccc1 (stereo not drawn) | 10.7% |
| CC1CCN(C(=O)CCNS(=O)(=O)c2ccc3c(c2)c(=O)n(C)c(=O)n3C)CC1 | 14.1% |

| SMILES | hERG current change (%, negative = inhibition) at 1uM |
| --- | --- |
| Cc1cc(C)c2c(N)c(S(=O)(=O)Cc3ccccc3)sc2n1 | -5.52% |
| Cc1ccc(/C=N/OC(=O)c2nn(C)cc2Cl)cc1 | 13.8% |
| O=C(COc1ccc(Cl)cc1Cl)N/N=C1\CCCc2ccccc21 | 6.54% |
| Cc1ccc2nc3n(c2c1)CCCN3 | 8.69% |
| CCOc1ccc(NC(=O)CSc2ccc3nnc(-c4cccnc4)n3n2)cc1 | -25.1% |
| C=CCn1c(CCCOc2ccc(Cl)cc2Cl)n[nH]c1=S | 14.9% |
| Cn1ccnc1CN1CCN(C(=O)c2cc(COc3ccc(F)c(F)c3)on2)CC1 | -0.0734% |
| O=C(CSc1ccccc1)NCCCc1ccccc1 | -5.86% |
| CS(=O)(=O)n1nc(C(=O)N2CCOCC2)nc1N | 9.07% |
| Cc1csc2nnc(N)n12 | -0.437% |
| CC(C)C(C(=O)Nc1ccncc1)c1ccc(Cl)cc1 (stereo not drawn) | 15.3% |
| Cc1ccc2c(CSc3nc4nc(C)cc(C)n4n3)cc(=O)oc2c1 | 5.08% |
| Cn1c(=O)n(Cc2ccco2)c(=N)c2c3c(sc21)CCCC3 | 1.03% |
| COc1ccc(CCNS(=O)(=O)c2ccc(Cl)s2)cc1OC | 4.51% |
| CN(Cc1ccc(F)cc1)C(=O)c1ccc(NS(=O)(=O)c2ccccc2)cc1 | -1.99% |
| O=C(Nc1ccc(S(=O)(=O)Nc2ncccn2)cc1)c1ccccc1NS(=O)(=O)c1ccc(F)cc1 | 14% |
| Cc1ccc(-c2noc(CCC(=O)Nc3cccc(C#N)c3)n2)cc1 | -3.58% |
| COc1cccc(-c2noc(C3CCCN(S(=O)(=O)c4cccc(Cl)c4C)C3)n2)c1 (stereo not drawn) | 4.54% |
| CCOC(=O)c1cc2cc3ccccc3cc2oc1=O | 12.6% |
| CC1CN(C(=O)CCCN2C(=O)c3ccccc3C2=O)CC(C)O1 (stereo not drawn) | 15.7% |
| CC[C@@H](C)[C@H](NS(=O)(=O)c1ccc(C)cc1)C(=O)N1CCC(C(=O)NCC(=O)O)CC1 | 6.57% |
| CCc1cc(C(=O)N=Nc2c(O)[nH]c3c(Br)cc(Br)cc23)c2ccccc2n1 | 15.5% |
| CCCCCC(=O)Nc1ccc(C2C(=O)c3ccccc3C2=O)cc1 | 2.75% |

| SMILES | hERG current change (%, negative = inhibition) at 1uM |
| --- | --- |
| COc1ccccc1CNCC(O)Cn1c2ccccc2c2ccccc21 (stereo not drawn) | 0.674% |
| Cc1ccc(N2CC(C(=O)N3CCCCCC3)CC2=O)cc1 (stereo not drawn) | 21.1% |
| CN1/C(=C\C=C2/C(=O)Oc3ccccc3C2=O)C(C)(C)c2ccccc21 | 9.75% |
| CC(=O)c1cc(CC=C(C)C)c(O)c(CC=C(C)C)c1O | 4.07% |
| CCOC(=O)C1C(=O)NC(c2ccccc2)=NC1c1ccc(Cl)cc1 (stereo not drawn) | 7.02% |
| Cc1ccc(-n2nnnc2-c2ccccc2)cc1 | 12.8% |
| CCc1ccccc1NC(=O)Nc1ccc2c(c1)OCO2 | 12.6% |
| Clc1cc(NC2CCCCC2)ncn1 | 24.7% |
| CCc1ccc(C(=O)COC(=O)CNC(=O)c2ccc(N3C(=O)c4ccccc4C3=O)cc2)cc1 | 5.3% |
| COC(=O)c1ccc(C2C(C(=O)Nc3ccc(C)cc3C)=C(C)Nc3ncnn32)cc1 (stereo not drawn) | 5.02% |
| CCOCCc1c(O)nc(SCCOc2ccc(C)c(C)c2)[nH]c1=O | 2.59% |
| CN(C)S(=O)(=O)c1ccc(C(=O)Nc2nnc(SCc3ccccc3)s2)cc1 | 0.463% |
| O=C(CN1C(=O)CSc2ccccc21)Nc1ccccc1C(=O)N1CCOCC1 | 7.64% |
| CN(c1ccccc1)S(=O)(=O)c1cccc(NC(=O)c2nn(C)c(=O)c3ccccc23)c1 | 9.84% |
| Cc1ccc(C(=O)COC(=O)CCN2C(=O)C3C4CCC(C4)C3C2=O)cc1C (stereo not drawn) | 14.6% |
| CCC(=O)c1ccc(Oc2nc3c(c(=O)n(C)c(=O)n3C)n2CC)cc1 | 12.8% |
| CCOc1ccc(/C=N/N2CCN(Cc3ccccc3)CC2)cc1 | 7.57% |
| COc1ccc(CN2C(=O)NC3(CCOc4ccccc43)C2=O)cc1F (stereo not drawn) | 15.8% |
| CN(C)CCCC(C)(O)C(Cc1ccccc1)c1ccccc1.Cl (stereo not drawn) | 12.2% |
| CC1(c2ccc3c(c2)OCCO3)NC(=O)N(CC(=O)Nc2c(F)cccc2F)C1=O (stereo not drawn) | 8.42% |
| O=C(COC(=O)C1CC(=O)N(CCc2ccccc2)C1)c1ccc[nH]1 (stereo not drawn) | -24% |
